Results taken from PubChem BioAssay AID2147 (National Center for Advancing Translational Sciences (NCATS), 2009).
The whole screen tested about 230,000 compounds, of which about 3,600 (1.6%) were called active. The inconclusive results got no clear call from the source; some entries with a clear call stand among them for comparison. Calls follow the shape of the dose curve; as a rule, active = well fitted inhibition curve with a large enough effect (not every such curve was filed as active); inconclusive = small, poorly fitted or top-dose-only effect, or another doubt; inactive = no such curve, though single readings can be large or run the other way. Where the call is inconclusive, the potency comes from a doubtful curve fit.

The molecules below were run against Lysine-specific demethylase 4E (Homo sapiens) (UniProt B2RXH2) (assay: qHTS Assay for Inhibitors of Human Jumonji Domain Containing 2E (JMJD2E)). Conditions: JMJD2E catalytic domain, FDH-coupled NADH fluorescence (FDH is formaldehyde dehydrogenase); series mostly up to 57.1 µM.
UniProt B2RXH2, sequence (B2RXH2 whole entry, looked up, the tested form may be a part): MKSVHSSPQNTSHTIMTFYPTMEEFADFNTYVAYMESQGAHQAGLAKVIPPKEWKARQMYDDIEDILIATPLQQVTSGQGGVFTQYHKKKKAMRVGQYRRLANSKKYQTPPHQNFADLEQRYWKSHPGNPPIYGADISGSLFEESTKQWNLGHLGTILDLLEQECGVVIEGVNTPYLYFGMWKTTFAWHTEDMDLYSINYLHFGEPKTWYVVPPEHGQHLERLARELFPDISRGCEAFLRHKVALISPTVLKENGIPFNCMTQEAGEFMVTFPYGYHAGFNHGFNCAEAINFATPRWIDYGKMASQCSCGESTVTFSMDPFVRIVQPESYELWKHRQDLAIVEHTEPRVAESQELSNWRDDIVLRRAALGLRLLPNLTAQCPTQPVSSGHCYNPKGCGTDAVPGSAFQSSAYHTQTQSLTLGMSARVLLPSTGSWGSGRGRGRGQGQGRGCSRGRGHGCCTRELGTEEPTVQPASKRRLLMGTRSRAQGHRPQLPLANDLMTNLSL
Also: nearly all actives have a fitted effect of over 50% in size.
Potency is read from the fitted curve at half-maximal effect; tags tell the direction and shape of the fitted curve.

Question: Which Potency does the source give for `CC1CN(C2CCN(C(=O)c3ccccc3Cl)CC2)CC(C)O1` (stereo not given) here?
Answer: inconclusive: 39.8 µM [inhibitor, single point]

Question: Which Potency does the source give for `Cc1ccc(C)c(CN2C(=O)C3CCCN3c3ccc(C#N)cc32)c1` (stereo not given) here?
Answer: inconclusive: 39.8 µM [inhibitor, single point]

Question: Which Potency does the source give for `Cc1cccc(C(=O)NC(=S)N2CCN(C(=S)NC(=O)c3cccc(C)c3)CC2)c1` here?
Answer: inactive

Question: How did the Potency turn out when `Cc1ccc(N/C=C/C(=O)c2cccs2)cc1C` was run?
Answer: inactive

Question: How did the Potency turn out when `CCOC(=O)COn1c(=O)c[n+]([O-])c2ccccc21` was run?
Answer: inconclusive: 39.8 µM [inhibitor, single point]

Question: `COc1ccc(N2CC(C(=O)Nc3ccc(S(=O)(=O)Nc4nccs4)cc3)CC2=O)cc1` (stereo not given) was tested. Which Potency did it give?
Answer: inconclusive: 0.355 µM [inhibitor, full curve, poor fit]

Question: For `COc1ccc(/C=C/C(=O)N2CCN(c3ccccn3)CC2)c2ccccc12`, which Potency is on record?
Answer: inconclusive: 39.8 µM [inhibitor, single point]

Question: How did the Potency turn out when `COC(=O)N/N=C/c1cc(Br)ccc1O` was run?
Answer: inconclusive: 28.2 µM [inhibitor, single point]

Question: For `COc1ccc(CN2CCNC(=O)C2CC(=O)N2CCc3ccccc3C2)c(OC)c1` (stereo not given), which Potency is on record?
Answer: inactive

Question: `Cc1c(C(=O)Cc2ccccc2)n(C)c2ccccc12` was tested. Which Potency did it give?
Answer: inconclusive: 25.1 µM [inhibitor, single point]

Question: How did the Potency turn out when `COc1ccc(S(=O)(=O)N2CCOCC2)cc1Br` was run?
Answer: inconclusive: 35.5 µM [inhibitor, single point]

Question: With `CCCOC(=O)NC1C(NC(=O)OCCC)N(C)C(=O)N1C` (stereo not given) as the molecule, how does the Potency read?
Answer: inconclusive: 35.5 µM [inhibitor, single point]

Question: For `COc1ccc2c(CN3CCN(S(=O)(=O)c4cccs4)CC3)cc(=O)oc2c1`, which Potency is on record?
Answer: inconclusive: 35.5 µM [inhibitor, partial curve]

Question: `COc1ccccc1Oc1coc2c(CN3CCOCC3)c(O)ccc2c1=O` was tested. Which Potency did it give?
Answer: inconclusive: 31.6 µM [inhibitor, partial curve]

Question: For `Cc1nc2c(cnn2-c2ccccc2Cl)c(=O)n1-c1ccc(N2CCC(C)CC2)cc1`, which Potency is on record?
Answer: inactive

Question: Which Potency does the source give for `CN(C)c1cccc(C(=O)NC2CCCCCC2)c1` here?
Answer: inconclusive: 39.8 µM [inhibitor, single point]

Question: With `O=C(CN1CCCCC1)Nc1ccc(NC(=O)c2ccccc2Cl)cc1Cl` as the molecule, how does the Potency read?
Answer: inconclusive: 35.5 µM [inhibitor, single point]

Question: `Fc1ccc(C2CC(c3ccco3)=NN2c2ccccc2)cc1` (stereo not given) was tested. Which Potency did it give?
Answer: inactive

Question: `O=S(=O)(NC1CC1)c1ccc2c3c(cccc13)CC2` was tested. Which Potency did it give?
Answer: inconclusive: 28.2 µM [inhibitor, partial curve]

Question: Which Potency does the source give for `Cc1cc(C)c2c(N)c(C(=O)c3ccccc3)oc2n1` here?
Answer: inconclusive: 22.4 µM [inhibitor, partial curve]

Question: With `Cc1nc(-c2ccc(S(=O)(=O)NCC3CCN(C(=O)OC(C)(C)C)CC3)s2)cs1` as the molecule, how does the Potency read?
Answer: inconclusive: 39.8 µM [inhibitor, single point]

Question: Which Potency does the source give for `O=S(=O)(Nc1ccc(O)c(Sc2nc3ccccc3s2)c1)c1ccc(Cl)cc1` here?
Answer: inconclusive: 28.2 µM [inhibitor, partial curve]

Question: For `O=C(OCC#CCSc1nnc(-c2cccc3ccccc23)o1)c1cccs1`, which Potency is on record?
Answer: inconclusive: 35.5 µM [inhibitor, partial curve]

Question: How did the Potency turn out when `CCOc1cc(-c2c(C#N)c(N)nc3c2CCCC3)ccc1O` was run?
Answer: inconclusive: 35.5 µM [inhibitor, single point]

Question: For `C=CCN=Cc1sc2ccc(OCC)cc2c1O`, which Potency is on record?
Answer: inconclusive: 7.08 µM [inhibitor, single point]

Question: Which Potency does the source give for `Cc1cc(-c2n[nH]c(=S)n2/N=C/c2ccc(Br)s2)n[nH]1` here?
Answer: inactive

Question: Which Potency does the source give for `Cc1ccc(S(=O)(=O)NCC2CCC(C(=O)NCc3ccco3)CC2)cc1` (stereo not given) here?
Answer: inactive

Question: For `NC(=O)c1ccc[n+]([C@@H]2OC(COP(=O)([O-])OP(=O)(O)OCC3OC(n4cnc5c(N)ncnc54)C(O)C3O)C(O)C2O)c1` (stereo not given in full), which Potency is on record?
Answer: inactive

Question: `CCOC(=O)c1cc2c(=O)n3ccccc3nc2n(C(C)C)c1=NC(=O)c1ccco1` was tested. Which Potency did it give?
Answer: inconclusive: 31.6 µM [inhibitor, partial curve]

Question: How did the Potency turn out when `CC(=O)NC(c1ccco1)c1ccc2cccnc2c1O` (stereo not given) was run?
Answer: active: 25.1 µM

Question: With `CCN(CC)CCN1C(=O)C(O)=C(C(=O)c2cc3cccc(OC)c3o2)C1c1cccs1` (stereo not given) as the molecule, how does the Potency read?
Answer: inactive

Question: Which Potency does the source give for `CCCC(=O)Nc1ccc(-c2csc(NNC(C)=O)n2)cc1` here?
Answer: inactive

Question: With `O=C(Nc1cn(-c2ccccc2)nc1-c1ccc(F)cc1)c1ccccc1` as the molecule, how does the Potency read?
Answer: inconclusive: 35.5 µM [inhibitor, single point]

Question: How did the Potency turn out when `CN(C)c1ccc(N/C=C/C(=O)C(C)(C)C)cc1` was run?
Answer: active: 7.08 µM

Question: How did the Potency turn out when `O=C(Nc1ccccc1-c1ccccc1)C1CCCN(c2ncccn2)C1` (stereo not given) was run?
Answer: inconclusive: 35.5 µM [inhibitor, single point]

Question: How did the Potency turn out when `CCOC(=O)N1CCN(C(=O)CSc2ccc3nnc(-c4ccccn4)n3n2)CC1` was run?
Answer: inconclusive: 31.6 µM [inhibitor, partial curve]

Question: With `CCOC(=O)C1=C(C)NC2=C(C(=O)CCC2)C1c1ccsc1` (stereo not given) as the molecule, how does the Potency read?
Answer: inconclusive: 28.2 µM [inhibitor, partial curve]

Question: For `CN(C)CCCNC(=O)c1cc(Br)ccc1O`, which Potency is on record?
Answer: inconclusive: 14.1 µM [inhibitor, partial curve]

Question: How did the Potency turn out when `CCOc1cc(C2CC(=O)c3c(ccc4ccccc34)N2)ccc1O` (stereo not given) was run?
Answer: inactive

Question: How did the Potency turn out when `CC(=O)Cc1nsc(Nc2ccc(F)cc2)n1` was run?
Answer: inactive

Question: For `O=C(CCSc1nc(-c2ccc3c(c2)OCO3)cc(C(F)(F)F)n1)NCc1ccccc1`, which Potency is on record?
Answer: inconclusive: 31.6 µM [inhibitor, partial curve]

Question: Which Potency does the source give for `COc1ccc(-n2c(C)cc(C(=O)COC(=O)c3cc(NC(=O)c4cccs4)c(OC)c(OC)c3)c2C)cc1` here?
Answer: inconclusive: 20 µM [inhibitor, partial curve]

Question: How did the Potency turn out when `COc1cccc2c(=O)n(CC(=O)N3CCCc4ccccc43)ccc12` was run?
Answer: inconclusive: 28.2 µM [inhibitor, single point]

Question: With `O=c1c2cccc3c2c(nn1CN1CCOCC1)-c1ccccc1-3` as the molecule, how does the Potency read?
Answer: inconclusive: 25.1 µM [inhibitor, partial curve]

Question: Which Potency does the source give for `COC(=O)c1cc(OC)c(OC)cc1NCC(=O)Nc1cccc(C(F)(F)F)c1` here?
Answer: inconclusive: 28.2 µM [inhibitor, partial curve]
